# Results as given in PubChem BioAssay AID588579 (National Center for Advancing Translational Sciences (NCATS), 2011).
# About 2,200 (0.55%) of roughly 400,000 compounds were called active. The shares of active, inactive and inconclusive entries below differ from those in the screen. Calls follow the shape of the dose curve; as a rule, active = well fitted inhibition curve with a large enough effect; inconclusive = small, poorly fitted or top-dose-only effect, or another doubt; inactive = no such curve, though single readings can be large or run the other way. Potencies beside an inconclusive call are fits to weak or partial responses and may not hold up. More than one record can exist for a structure, and the calls need not agree.
# Biological target: DNA polymerase kappa (Homo sapiens) (UniProt Q9UBT6)
# UniProt Q9UBT6, sequence (Q9UBT6 whole entry, looked up): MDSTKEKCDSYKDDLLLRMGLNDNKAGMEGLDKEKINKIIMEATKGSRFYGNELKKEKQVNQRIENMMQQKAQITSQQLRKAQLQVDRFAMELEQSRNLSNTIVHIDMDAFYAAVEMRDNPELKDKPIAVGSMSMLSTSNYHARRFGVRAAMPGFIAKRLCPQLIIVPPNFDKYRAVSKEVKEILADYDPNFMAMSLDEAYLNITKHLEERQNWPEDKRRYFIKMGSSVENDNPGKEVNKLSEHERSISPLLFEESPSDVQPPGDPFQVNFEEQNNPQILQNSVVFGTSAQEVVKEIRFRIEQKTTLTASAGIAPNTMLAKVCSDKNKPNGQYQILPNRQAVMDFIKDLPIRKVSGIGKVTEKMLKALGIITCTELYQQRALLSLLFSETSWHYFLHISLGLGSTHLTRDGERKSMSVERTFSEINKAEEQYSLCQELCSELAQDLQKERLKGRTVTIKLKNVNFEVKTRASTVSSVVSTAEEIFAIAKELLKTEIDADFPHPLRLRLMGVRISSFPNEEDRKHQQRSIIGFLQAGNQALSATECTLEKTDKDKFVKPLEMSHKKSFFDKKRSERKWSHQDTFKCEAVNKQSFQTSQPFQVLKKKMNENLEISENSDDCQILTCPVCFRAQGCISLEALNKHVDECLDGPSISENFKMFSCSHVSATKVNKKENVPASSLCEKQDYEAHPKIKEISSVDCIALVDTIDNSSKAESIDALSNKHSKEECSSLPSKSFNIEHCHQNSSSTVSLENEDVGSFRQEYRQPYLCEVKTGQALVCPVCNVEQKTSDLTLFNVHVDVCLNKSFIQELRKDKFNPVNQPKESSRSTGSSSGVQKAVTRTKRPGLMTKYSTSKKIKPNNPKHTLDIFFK
# Assay: qHTS for Inhibitors of Polymerase Kappa
# Settings: purified Pol kappa, fluorescent DNA synthesis assay, 10 min; series mostly up to 107 µM
# Method in brief: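 Here, compound and 10 nM enzyme are combined for 15 min at room temperature; adding 50 nM substrate (final) starts DNA synthesis, tracked by fluorescence at 0 and 10 min against buffer-only wells.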
# Potency is read from the fitted curve at half-maximal effect; tags tell the direction and shape of the fitted curve.
row,Structure (SMILES),Potency
1,CCCCCCCC/C=C\CCCCCCCC(=O)O,"inconclusive: 23.8 µM [inhibitor, single point]"
2,CCOc1ccc(/C=C/C(=O)c2cc(Br)ccc(=O)c2O)cc1,"inconclusive: 100 µM [inhibitor, partial curve, poor fit]"
3,COc1cc(NC(=O)CSc2nnc3c(n2)[nH]c2ccc(S(=O)(=O)NC(C)C)cc23)cc(OC)c1OC,"inconclusive: 89.1 µM [inhibitor, single point]"
4,COc1ccc(CNS(=O)(=O)c2ccc3c(c2)NC(=O)C(C)C(=O)N3)cc1 (configuration not stated),inactive
5,CC(=O)c1cccc(NC(=O)Cn2c(=O)oc3cc(S(=O)(=O)NCc4ccccc4)ccc32)c1,inactive
6,CCOc1ccc(C(=O)NC(=S)Nc2ccccn2)cc1[N+](=O)[O-],inactive
7,O=C1CC(=O)N(Cc2ccco2)C(=O)N1,active: 8.91 µM
8,CN(C)c1ccc(CNC(=O)CCn2c(=O)c3cccn3c3ccc(F)cc32)cc1,inactive
9,Cc1cc(C)c2nc(-c3ccccn3)cc(C(=O)NCc3ccco3)c2c1,"inconclusive: 89.1 µM [inhibitor, single point]"
10,COCCN(C(=O)COC(=O)Cc1coc2cc(C)ccc12)c1c(N)n(Cc2ccccc2)c(=O)[nH]c1=O,"inconclusive: 89.1 µM [inhibitor, single point]"
11,CCOC(=O)N/N=C/c1ccc(F)cc1F,"inconclusive: 89.1 µM [inhibitor, single point]"
12,Cc1ccc(C)n1-c1ccc(C(=O)NCc2ccncc2)cc1,inactive
13,Nc1ccc2cccc(O)c2c1,active: 79.4 µM
14,COc1cccc2c(C)c(C(=O)O)[nH]c12,"inconclusive: 89.1 µM [inhibitor, single point]"
15,CC(C(=O)Nc1ccc(O)cc1C(=O)O)N1C(=O)/C(=C\c2cccs2)SC1=S (configuration not stated),"inconclusive: 89.1 µM [inhibitor, single point]"
16,Fc1cccc(Cl)c1C1Nc2cccc3cccc(c23)N1,inactive
17,COc1ccc(/C=N/NC(=O)c2[nH]c3ccc(Br)cc3c2-c2ccccc2)cc1,inactive
18,C=C(C)C(=O)Nc1cccc(C2=NOC3(C2)C[C@@H](C(N)=O)N(C(=O)/C(C)=C/C)C3)c1 (some centres not stated),active: 20 µM
19,O=C(c1ccc(C(F)(F)F)cc1)N1CCC(=O)N([C@H](COCc2ccc(C(F)(F)F)cc2)Cc2ccccc2)CC1,"inconclusive: 14.1 µM [inhibitor, partial curve, poor fit]"
20,COc1cc(N(C)C)cc(CN(C)CCc2ccc([N+](=O)[O-])cc2)c1O,active: 2.99 µM
21,COc1ccc(-c2nnc(Nc3ccc(OC)c(C(N)=O)c3)c3ccccc23)cc1,"inconclusive: 89.1 µM [inhibitor, partial curve, poor fit]"
22,O=C(O)c1cc(S(=O)(=O)Nc2ccc3oc(=O)sc3c2)ccc1O,"inconclusive: 89.1 µM [inhibitor, single point]"
23,O=C(NCc1ccco1)c1c2c(nc3ccccc13)CCC2,active: 31.6 µM

row,Structure (SMILES),Potency
1,O=C(CCN1C(=O)/C(=C\C=C\c2ccccc2)SC1=S)Nc1ccc(C(=O)O)cc1,"inconclusive: 50.1 µM [inhibitor, partial curve, poor fit]"
2,[N-]=[N+]=Nc1ccc(C(=O)CSC[C@H](NC(=O)CC[C@H](N)C(=O)O)C(=O)NCC(=O)O)cc1,"inconclusive: 37.7 µM [inhibitor, single point]"
3,Cc1ccc(C)c(Nc2nc3c(S(=O)(=O)c4ccc(Br)cc4)nnn3c3ccsc23)c1,"inconclusive: 89.1 µM [inhibitor, single point]"
4,O=[N+]([O-])c1ccc(O)c(C=NNc2ccc(S(=O)(=O)O)cc2)c1,"inconclusive: 89.1 µM [inhibitor, single point]"
5,O=C(Nc1ccc2nc(-c3ccco3)c(-c3ccco3)nc2c1)N1CCCCCC1,active: 7.08 µM
6,O=C(O)C/C(=C\c1cccc(NC(=O)c2ccccc2Cl)c1)c1nc2ccccc2s1,"inconclusive: 89.1 µM [inhibitor, single point]"
7,COc1cc(SC)ccc1C(=O)Nc1nc2ccccc2[nH]1,inactive
8,CCOc1ccccc1OCC(=O)NCc1ccco1,"inconclusive: 22.4 µM [inhibitor, full curve]"
9,Cc1cccc(C)c1Nc1nnc(SCC(=O)Nc2sccc2C#N)s1,"inconclusive: 100 µM [inhibitor, single point]"
10,COc1ccc2cc3c(N)c(C(=O)NCc4ccco4)sc3nc2c1,"inconclusive: 89.1 µM [inhibitor, single point]"
11,O=C(CCN1C(=O)/C(=C/c2ccco2)SC1=S)Nc1ccc(O)cc1C(=O)O,"inconclusive: 20 µM [inhibitor, single point]"
12,COC(=O)C1(Cc2ccc(O)cc2)OC(=O)C(O)=C1c1ccc(O)cc1 (configuration not stated),"inconclusive: 56.2 µM [inhibitor, partial curve, poor fit]"
13,CN(C)c1ccc(/C=C/c2nc3ccccc3s2)c(Cl)c1,inactive
14,CCC(C)NC(=O)C1CCN(C(=O)c2ccc(-n3ccc4ccccc43)s2)CC1 (configuration not stated),inactive
15,Cc1ccc(N=Cc2cc3c(cc2[N+](=O)[O-])OCO3)cc1[N+](=O)[O-],"inconclusive: 63.1 µM [inhibitor, partial curve, poor fit]"
16,COc1ccc(-c2cc3ncnc(Cl)c3s2)cc1,inactive
17,O=C(O)c1cc(-c2ccco2)nc2ccc(Br)cc12,active: 7.08 µM
18,CCn1c(N2CCN(CC(=O)c3c(C)n(C)c4ccc(OC)cc34)CC2)nc2c1c(=O)[nH]c(=O)n2C,"inconclusive: 89.1 µM [inhibitor, single point]"
19,CCc1nnc(NC(=O)C2Cc3ccccc3CN2S(=O)(=O)c2cccs2)s1 (configuration not stated),"inconclusive: 89.1 µM [inhibitor, partial curve, poor fit]"
20,O=C(O)c1[nH]c2ccc(Cl)cc2c1CC(=O)N1CCN(C(=O)c2ccco2)CC1,active: 50.1 µM
21,CCOC(=O)c1c2c3c(c(Cl)ccc3[nH]c1=O)C(=O)c1ccccc1-2,"inconclusive: 89.1 µM [inhibitor, partial curve, poor fit]"
22,Cc1cc2[nH]c(=O)c(=O)[nH]c2cc1S(=O)(=O)N1CCN(c2cccc(C)c2C)CC1,"inconclusive: 56.2 µM [inhibitor, partial curve, poor fit]"
23,Cc1c(C(=O)O)sc2nc(CSc3ncc(C(F)(F)F)cc3Cl)[nH]c(=O)c12,inactive

row,Structure (SMILES),Potency
1,Cc1cc2oc(=O)cc(-c3cc4ccccc4o3)c2cc1O,"inconclusive: 79.4 µM [inhibitor, single point]"
2,CCNC(=S)N=Nc1c(O)[nH]c2ccc([N+](=O)[O-])cc12,"inconclusive: 100 µM [inhibitor, partial curve, poor fit]"
3,CCc1c(C(=O)NCCc2ccc(N3CCCCC3)cc2)[nH]c2ccc(Cl)cc12,"inconclusive: 26.7 µM [inhibitor, partial curve, poor fit]"
4,Oc1ccc(C(O)CNCCCCCCNCC(O)c2ccc(O)c(O)c2)cc1O (configuration not stated),"inconclusive: 0.447 µM [inhibitor, full curve, poor fit]"
5,CC(=O)N(c1ccc2oc(=O)sc2c1)S(=O)(=O)c1ccc(C(=O)O)cc1,"inconclusive: 89.1 µM [inhibitor, single point]"
6,CC1(C)Oc2cc(N)c([N+](=O)[O-])cc2O1,"inconclusive: 89.1 µM [inhibitor, single point]"
7,CC(C)c1ccc2oc(-c3cccc(NC(=O)c4ccc5c(c4)OCCO5)c3)nc2c1,"inconclusive: 89.1 µM [inhibitor, single point]"
8,N#C/C(=C\c1ccc(-c2ccc([N+](=O)[O-])cc2)o1)C(=O)Nc1nc(-c2cccs2)cs1,"inconclusive: 89.1 µM [inhibitor, single point]"
9,CCCCC(=O)Nc1ccc(S(=O)(=O)Nc2nccc(C)n2)cc1,"inconclusive: 89.1 µM [inhibitor, partial curve, poor fit]"
10,COc1cc(NC(=O)c2cnc3c(-c4ccc(F)cc4)c(C)nn3c2C)cc(OC)c1,"inconclusive: 89.1 µM [inhibitor, single point]"
11,Cc1cc(O)cc(=O)o1,"inconclusive: 35.5 µM [inhibitor, partial curve, poor fit]"
12,Cc1ccc(NC(=O)CCNS(=O)(=O)c2ccc3c(c2)oc(=O)n3C)cc1,active: 89.1 µM
13,CCOC(=O)c1c(NC(=O)COc2cccc(C(F)(F)F)c2)sc2c1CCCCC2,inactive
14,Cc1ccc(-n2ncc3c2CC(C)(C)CC3NC(=O)CCc2ccncc2)cc1 (configuration not stated),inactive
15,CC(C)c1nc(CN(C)C(=O)N[C@H](C(=O)N[C@@H](Cc2ccccc2)C[C@H](O)[C@H](Cc2ccccc2)NC(=O)OCc2cncs2)C(C)C)cs1,"inconclusive: 39.8 µM [inhibitor, single point]"
16,CC(=O)c1cccc(NC(=O)c2cc3sc(Cl)cc3n2C)c1,"inconclusive: 89.1 µM [inhibitor, single point]"
17,O=c1cc(-c2ccc(Cl)cc2)[nH][nH]1,inactive
18,Cc1ccc(-c2c3c(=O)n(C)c(=O)n(C)c3c3c(C)nc4ccccc4n23)cc1,inactive
19,O=C(NNC(=O)c1ccc(NC(=O)c2ccccc2)cc1)Nc1ccccc1,"inconclusive: 89.1 µM [inhibitor, single point]"
20,COc1cccc(NC(=O)CSc2ncnc3c2cnn3Cc2ccccc2)c1,"inconclusive: 89.1 µM [inhibitor, single point]"
21,CCN(CC)c1ccc(/C=C/c2ccc3ccccc3n2)cc1,active: 39.8 µM
